Some of the results follow. Where only a bound is given, the exact number is not on record here.

To fix the notation:
B1: PhoQ; a variant is named by its letters at X, in order, P23837 (parent)
chain: MKKLLRLFFPLSLRVRFLLATAAVVLVLSLAYGMVALIGYSVSFDKTTFRLLRGESNLFYTLAKWENNKLHVELPENIDKQSPTMTLIYDENGQLLWAQRDVPWLMKMIQPDWLKSNGFHEIEADVNDTSLLLSGDHSIQQQLQEVREDDDDAEMTHSVAVNVYPATSRMPKLTIVVVDTIPVELKSSYMVWSWFIYVLSANLLLVIPLLWVAAWWSLRPIEALAKEVRELEEHNRELLNPATTRELTSLVRNLNRLLKSERERYDKYRTTLTDLTHSLKTPLXXLQXXLRSLRSEKMSVSDAEPVMLEQISRISQQIGYYLHRASMRGGTLLSRELHPVAPLLDNLTSALNKVYQRKGVNISLDISPEISFVGEQNDFVEVMGNVLDNACKYCLEFVEISARQTDEHLYIVVEDDGPGIPLSKREVIFDRGQRVDTLRPGQGVGLAVAREITEQYEGKIVAGESMLGGARMEVIFGRQHSAPKDE

The assay covers variants of B1. Kind of assay: enrichment ratio after two sorts for PhoP signalling (ratio (wild type AVST 3.29)); higher = more functional. Particulars: with PhoP (E. coli).
As to HMWN, the enrichment ratio was at most 0.25.

Consider HTYK, for which the enrichment ratio is at most 0.25.

Turning to WIVT, the enrichment ratio was at most 0.25.

With KHAR, the enrichment ratio was at most 0.25.

Turning to PSHI, the enrichment ratio is at most 0.25.

With FEWF, the enrichment ratio is at most 0.25.

Consider DVAF, for which the enrichment ratio is at most 0.25.

For the variant ANIL, the enrichment ratio worked out at 22.8.

As to TILY, the enrichment ratio was at most 0.25.

Consider KCIL, for which the enrichment ratio is at most 0.25.

For LTEG, the enrichment ratio was at most 0.25.

For YETF, the enrichment ratio was at most 0.25.

On to SMNA, for which the enrichment ratio was at most 0.25.

Turning to TGNC, the enrichment ratio was determined as 61.8.

As to WEGN, the enrichment ratio was at most 0.25.

Take FDAH: the enrichment ratio was at most 0.25.

In the case of TLEL, the enrichment ratio worked out at 3.77.

With WYIK, the enrichment ratio is at most 0.25.

Regarding YSCA, the enrichment ratio is at most 0.25.

Consider VQKF, for which the enrichment ratio is at most 0.25.

Consider QFAA, for which the enrichment ratio was at most 0.25.

For the variant QDRH, the enrichment ratio was at most 0.25.

Consider GRQC, for which the enrichment ratio was at most 0.25.

Regarding QFQW, the enrichment ratio was at most 0.25.

As for NFCH, the enrichment ratio was at most 0.25.

Regarding IHAA, the enrichment ratio was at most 0.25.

Regarding TCYM, the enrichment ratio came out at 12.1.

Take TGPC: the enrichment ratio was at most 0.25.

Take NGPH: the enrichment ratio was at most 0.25.

Regarding STGC, the enrichment ratio was 5.24.

Consider MGKT, for which the enrichment ratio is at most 0.25.

For PMGS, the enrichment ratio was at most 0.25.

On to IQIG, for which the enrichment ratio is at most 0.25.

Regarding RGMI, the enrichment ratio was at most 0.25.

As to HKVD, the enrichment ratio was at most 0.25.

On to TECL, for which the enrichment ratio stood at 9.66.

For the variant ICGG, the enrichment ratio was at most 0.25.

Turning to QAAR, the enrichment ratio was at most 0.25.

NLHC: the enrichment ratio is at most 0.25.

As for IQYS, the enrichment ratio was at most 0.25.

In the case of DMPV, the enrichment ratio was at most 0.25.

For AFCG, the enrichment ratio came out at 11.4.

On to KSIT, for which the enrichment ratio is at most 0.25.

In the case of MIVN, the enrichment ratio was at most 0.25.

Turning to VNKP, the enrichment ratio was at most 0.25.

Regarding RFKA, the enrichment ratio is at most 0.25.

Turning to VWKH, the enrichment ratio is at most 0.25.

Regarding ETHD, the enrichment ratio was at most 0.25.

As for SWHC, the enrichment ratio was at most 0.25.

Regarding ADPL, the enrichment ratio was at most 0.25.

Turning to SFQV, the enrichment ratio is at most 0.25.

LFDH: the enrichment ratio was at most 0.25.

Consider ARLT, for which the enrichment ratio came out at 0.509.

On to FYFF, for which the enrichment ratio is at most 0.25.

Consider YLYN, for which the enrichment ratio is at most 0.25.

With PKNV, the enrichment ratio is at most 0.25.

Consider HFIW, for which the enrichment ratio was at most 0.25.

Consider LQPF, for which the enrichment ratio was at most 0.25.

As for IWNT, the enrichment ratio is at most 0.25.

Take ASFV: the enrichment ratio was at most 0.25.

As for TQDL, the enrichment ratio was at most 0.25.

On to IFLH, for which the enrichment ratio was at most 0.25.

FVVR: the enrichment ratio came to 0.322.

As for MNDF, the enrichment ratio is at most 0.25.

Regarding IMWG, the enrichment ratio is at most 0.25.

Regarding KTYT, the enrichment ratio is at most 0.25.

In the case of EVNN, the enrichment ratio is at most 0.25.

For the variant ETPM, the enrichment ratio is at most 0.25.

For the variant VCDT, the enrichment ratio is at most 0.25.

VGYN: the enrichment ratio is at most 0.25.

On to PAYD, for which the enrichment ratio is at most 0.25.

As to AISY, the enrichment ratio came out at 5.51.

In the case of AIQC, the enrichment ratio was at most 0.25.

As to DNGV, the enrichment ratio was at most 0.25.

Regarding YRQH, the enrichment ratio is at most 0.25.

Regarding DYIP, the enrichment ratio is at most 0.25.

In the case of QVTA, the enrichment ratio is at most 0.25.

On to RRDH, for which the enrichment ratio was at most 0.25.

NQPA: the enrichment ratio is at most 0.25.

With VKNI, the enrichment ratio is at most 0.25.

Take FFDL: the enrichment ratio was at most 0.25.

With IQVH, the enrichment ratio was at most 0.25.

Turning to QATR, the enrichment ratio is at most 0.25.

For the variant FEKK, the enrichment ratio was at most 0.25.

In the case of KHQS, the enrichment ratio was at most 0.25.

With LMRG, the enrichment ratio is at most 0.25.

On to QLAY, for which the enrichment ratio was at most 0.25.

Take MMYF: the enrichment ratio is at most 0.25.

As to RCRM, the enrichment ratio was at most 0.25.

For DMFR, the enrichment ratio is at most 0.25.

With HRFY, the enrichment ratio was at most 0.25.

Consider PWTM, for which the enrichment ratio is at most 0.25.

In the case of SVCM, the enrichment ratio was found to be 14.2.

Regarding FWSC, the enrichment ratio was at most 0.25.

On to ECLN, for which the enrichment ratio was at most 0.25.

Turning to YPFQ, the enrichment ratio is at most 0.25.

Consider AMQK, for which the enrichment ratio was at most 0.25.

Regarding VVST, the enrichment ratio was at most 0.25.

Regarding RFKV, the enrichment ratio was at most 0.25.

For the variant ERPR, the enrichment ratio is at most 0.25.

As to PGNC, the enrichment ratio was at most 0.25.

As for WWSN, the enrichment ratio was at most 0.25.

As to NVEH, the enrichment ratio is at most 0.25.

For VGHG, the enrichment ratio was at most 0.25.

Regarding EDFS, the enrichment ratio is at most 0.25.

Turning to QCTS, the enrichment ratio is at most 0.25.

As to KFIM, the enrichment ratio is at most 0.25.

On to NMGG, for which the enrichment ratio was at most 0.25.

For the variant PSDC, the enrichment ratio is at most 0.25.

Turning to RRMM, the enrichment ratio is at most 0.25.

For the variant WSNL, the enrichment ratio is at most 0.25.

Take RIDT: the enrichment ratio was at most 0.25.

For TNVC, the enrichment ratio is at most 0.25.

For YVGV, the enrichment ratio was at most 0.25.

For the variant MPTL, the enrichment ratio is at most 0.25.

Regarding RGTG, the enrichment ratio was at most 0.25.

For HDES, the enrichment ratio is at most 0.25.

With WFED, the enrichment ratio is at most 0.25.

Take ASHC: the enrichment ratio was at most 0.25.

As to HIPK, the enrichment ratio is at most 0.25.

Consider FASA, for which the enrichment ratio was at most 0.25.

For KRPY, the enrichment ratio was at most 0.25.

As to VPDQ, the enrichment ratio was at most 0.25.

As for WVKI, the enrichment ratio is at most 0.25.

As to RVWY, the enrichment ratio was at most 0.25.

SGRV: the enrichment ratio is at most 0.25.

Take YYKC: the enrichment ratio is at most 0.25.

As for PCLI, the enrichment ratio is at most 0.25.

LGAM: the enrichment ratio was at most 0.25.

AGDE: the enrichment ratio was at most 0.25.

With ADAY, the enrichment ratio is at most 0.25.

For the variant TATV, the enrichment ratio was 13.6.

Turning to SVNF, the enrichment ratio amounted to 8.6.

In the case of VYFH, the enrichment ratio was at most 0.25.

Regarding WTTH, the enrichment ratio was at most 0.25.

In the case of WSFY, the enrichment ratio is at most 0.25.

With LWPC, the enrichment ratio was at most 0.25.

Regarding YNAR, the enrichment ratio was at most 0.25.

Consider HYVQ, for which the enrichment ratio was at most 0.25.

For the variant RIAK, the enrichment ratio is at most 0.25.

MVTD: the enrichment ratio was at most 0.25.

In the case of PTSM, the enrichment ratio was at most 0.25.

For QGSH, the enrichment ratio is 9.79.

On to KFPY, for which the enrichment ratio was at most 0.25.

Turning to GFKK, the enrichment ratio is at most 0.25.

With GLNH, the enrichment ratio is at most 0.25.

Take GSQY: the enrichment ratio was at most 0.25.

Regarding QYYS, the enrichment ratio is at most 0.25.

For the variant NPMN, the enrichment ratio was at most 0.25.

On to VHFF, for which the enrichment ratio was at most 0.25.

Regarding PMVA, the enrichment ratio was at most 0.25.

Regarding SLCW, the enrichment ratio was found to be 0.501.

Take VKEY: the enrichment ratio was at most 0.25.

(Values after a collection of fitness landscapes (doi:10.1126/science.1257360).)
